The record followed here is publication PMC4336329 (PLoS ONE, 2015).

Out of some 310,000 compounds screened, about 14,000 (4.5%) showed an effect of 50% or more. The effect is printed as a negative number. The list shows a part of the results.
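Note: peak tail current of the secondary pulse compared with the same well before compound.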

Chain of human ether-à-go-go-related gene (hERG) potassium channel (Q12809 whole entry, looked up): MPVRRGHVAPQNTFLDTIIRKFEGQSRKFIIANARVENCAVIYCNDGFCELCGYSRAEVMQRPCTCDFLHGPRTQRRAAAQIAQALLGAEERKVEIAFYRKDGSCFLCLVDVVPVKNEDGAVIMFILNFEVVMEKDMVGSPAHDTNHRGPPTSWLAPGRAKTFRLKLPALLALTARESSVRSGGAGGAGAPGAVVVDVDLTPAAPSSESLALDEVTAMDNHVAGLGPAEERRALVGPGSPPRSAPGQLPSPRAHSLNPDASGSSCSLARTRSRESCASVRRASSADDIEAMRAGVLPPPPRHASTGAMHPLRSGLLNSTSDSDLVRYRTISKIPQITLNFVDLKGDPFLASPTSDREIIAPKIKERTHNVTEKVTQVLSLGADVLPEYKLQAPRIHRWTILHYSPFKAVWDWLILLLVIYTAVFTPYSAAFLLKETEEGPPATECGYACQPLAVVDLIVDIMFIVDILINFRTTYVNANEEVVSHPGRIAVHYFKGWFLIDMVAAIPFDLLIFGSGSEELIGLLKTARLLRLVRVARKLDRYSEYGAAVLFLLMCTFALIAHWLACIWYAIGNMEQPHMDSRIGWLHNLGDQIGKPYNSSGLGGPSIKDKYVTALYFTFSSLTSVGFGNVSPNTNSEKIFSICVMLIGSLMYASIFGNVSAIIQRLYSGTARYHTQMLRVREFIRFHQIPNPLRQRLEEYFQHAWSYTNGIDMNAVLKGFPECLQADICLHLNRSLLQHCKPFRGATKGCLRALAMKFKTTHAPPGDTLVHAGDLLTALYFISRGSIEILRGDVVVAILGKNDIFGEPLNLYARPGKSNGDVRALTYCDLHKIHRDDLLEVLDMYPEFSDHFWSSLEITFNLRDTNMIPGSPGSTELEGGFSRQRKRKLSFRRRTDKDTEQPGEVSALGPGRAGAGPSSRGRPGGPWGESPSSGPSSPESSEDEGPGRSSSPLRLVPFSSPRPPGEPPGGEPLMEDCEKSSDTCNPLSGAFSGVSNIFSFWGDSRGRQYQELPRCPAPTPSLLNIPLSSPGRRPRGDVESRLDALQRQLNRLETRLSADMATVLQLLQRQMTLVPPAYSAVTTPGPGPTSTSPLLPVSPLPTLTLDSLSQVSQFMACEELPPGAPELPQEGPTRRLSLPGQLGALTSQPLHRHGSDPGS

This test concerns the target human ether-à-go-go-related gene (hERG) potassium channel (human, UniProt Q12809). Put plainly: primary screen, population patch clamp on CHO cells stably expressing hERG.
With `COc1ccc(NC(=O)CC2C(=O)N(c3ccc(OC)cc3)C(=O)N2CCc2cccs2)cc1` (stereo not shown), the “hERG current change (%, negative = inhibition) at 10uM” value is listed as -0.997%.
Then `CCOC1(c2ccccc2)OC(=O)c2ccccc21` (stereo not shown), with 0.901%; and `CCOC(=O)CC(NC(=O)c1cc2ccccc2oc1=O)c1cccc([N+](=O)[O-])c1` (stereo not shown), with -58.5%.
Consider `O=C(Nc1c2c(nn1-c1ccccc1)CS(=O)C2)c1ccc2c(c1)OCO2` (stereo not shown), for which the “hERG current change (%, negative = inhibition) at 10uM” value is on record as -1.09%.
Then `O=C(Nc1ccc(F)cc1F)c1cccn1-c1ncc(C(F)(F)F)cc1Cl`, with -5.39%; and `CC(Oc1ccc(Br)cc1)C(=O)N1CCC(C(N)=O)CC1` (stereo not shown), with -78.1%; and `N#C/C(=C\c1c[nH]c2ccccc12)C(=O)NC1CC1`, with 11.1%.
Then `N#Cc1ccc(S(=O)(=O)Nc2ccc3ccccc3n2)cc1`, with -15.5%; and `O=C(O)c1ccc(NC(=S)NC(=O)C(c2ccccc2)c2ccccc2)cc1`, with -6.52%; and `O=C(NC1CCCC1)C(c1ccc(F)cc1)N(Cc1ccc(F)cc1)C(=O)c1ccn[nH]1` (stereo not shown), with -20.5%.
On to `O=C(NC(=S)Nc1ccc(CN2CCOCC2)cc1)c1ccc([N+](=O)[O-])cc1Cl`, for which the “hERG current change (%, negative = inhibition) at 10uM” value amounted to 18.8%.
Then `COc1ccc(CNCc2ccccc2[N+](=O)[O-])cc1OC.O=C(O)C(=O)O`, with -5.58%; and `CCOC(=O)c1cnc(-n2nc(C)cc2C)nc1Nc1cccc(C(C)=O)c1`, with -8.14%.
Then `Cc1ccc(CCNC(=O)CN2C(=O)COc3ccc(S(=O)(=O)N4CCCCC4)cc32)cc1`, with -13.7%; and `CC(C)(C)C1CCC(=NNC(=S)Nc2cccnc2)CC1` (stereo not shown), with 10%.
As to `Cc1cc(C)n(Cc2ccc(C(=O)NCCC3=CCCCC3)o2)n1`, the “hERG current change (%, negative = inhibition) at 10uM” value is reported as -15.8%.
For `CCOC(=O)C(C)Oc1cc(Cl)c(C=O)cc1OC` (stereo not shown), the “hERG current change (%, negative = inhibition) at 10uM” value was determined as 4.6%.
In the case of `CCC1(C)Cc2c(sc3c2c(=O)n(C)c2nnc(SCC(=O)c4ccccc4)n32)CO1` (stereo not shown), the “hERG current change (%, negative = inhibition) at 10uM” value was -6.48%.
Then `Cl.O=C(CN1CCCC1)Nc1ccc2c(c1)CCC2`, with -1.69%.
Then `CCN(CC)C(=O)c1cn(CCC#N)nc1-c1ccc(F)cc1`, with -9.85%; and `O=C(CSc1ccc2nnc(-c3cccnc3)n2n1)NCc1ccco1`, with -44.3%; and `CC(=O)Nc1ccc(NC(=O)CSC2=NS(=O)(=O)c3ccccc3N2)cc1`, with 5.2%.
Take `COCCNC(=O)C1Nc2ccc(C(F)(F)F)cc2C2C=CCC12` (stereo not shown): the “hERG current change (%, negative = inhibition) at 10uM” value was -1.62%.
Then `CC1CCCN(S(=O)(=O)c2cccc([N+](=O)[O-])c2)C1` (stereo not shown), with 0.457%.
Take `FCCCOc1ccc(/C=N/OCc2c(Cl)cccc2Cl)cc1`: the “hERG current change (%, negative = inhibition) at 10uM” value turned out to be 0.839%.
Then `CCCCOc1ccc(Cn2c(=O)oc3ccccc32)cc1`, with 16.8%; and `CCCCCn1c(=O)[nH]c2cc(C(=O)NCc3ccco3)ccc2c1=O`, with 7.43%; and `COc1ccc(CN2C(=O)CCC2(C)C(=O)NC2CCCC2)c(OC)c1` (stereo not shown), with 0.268%.
Regarding `Cc1ccccc1NS(=O)(=O)c1cccc(-c2nnc(-c3ccccc3)o2)c1`, the “hERG current change (%, negative = inhibition) at 10uM” value is -17%.
With `CCOC(=O)CCc1c(C)c2ccc(OC(C)C(=O)OCC)c(C)c2oc1=O` (stereo not shown), the “hERG current change (%, negative = inhibition) at 10uM” value was -49.3%.
Then `CC(C)c1ccc(N(C(=O)C(F)(F)F)C(C(=O)NC2CCCCC2)c2ccncc2)cc1` (stereo not shown), with -6.83%; and `CCOC(=O)c1ccc(NC=C2C(=O)OC3(CCCCC3)OC2=O)cc1`, with 14.4%; and `COc1cccc(Nc2nnc(SCC(=O)N3CC(=O)Nc4ccccc43)s2)c1`, with 4.21%.
Then `C=CCNC(=S)NNc1nc2c(c(=O)[nH]1)C1(CCCC1)Cc1ccccc1-2`, with 20.8%; and `CCOC(=O)C(C)n1cnc2c(nnn2-c2ccccc2)c1=O` (stereo not shown), with -19.6%; and `Cl.N=C(c1cccc([N+](=O)[O-])c1)N1CCCCCC1`, with 2.26%.
For the compound `C#C[C@]1(O)CC[C@H]2[C@@H]3CCC4=CC(=O)CC[C@@H]4[C@H]3CC[C@@]21C`, the “hERG current change (%, negative = inhibition) at 10uM” value came out at 19.2%.
`Cc1ccc(S(=O)(=O)NCCC(=O)N2CCC(Cc3ccccc3)CC2)cc1`: the “hERG current change (%, negative = inhibition) at 10uM” value is on record as -34%.
Regarding `O=C(COc1ccccc1[N+](=O)[O-])Nc1ccc2c(c1)OCO2`, the “hERG current change (%, negative = inhibition) at 10uM” value was 12.8%.
As for `CCOC(=O)C1(Cc2ccccc2)CCCN(Cc2cccc(C(C)=O)c2)C1` (stereo not shown), the “hERG current change (%, negative = inhibition) at 10uM” value was -2.24%.
In the case of `Cc1nn(CC(=O)NCCc2ccccc2)c(=O)c2ccccc12`, the “hERG current change (%, negative = inhibition) at 10uM” value is -8.9%.
With `CCN(CC)C(=O)CSc1ncnc2sc(-c3ccccc3)cc12`, the “hERG current change (%, negative = inhibition) at 10uM” value was -20.6%.
On to `O=C(NC1CCCC1)C1CCC(=O)N1C1CCCCC1` (stereo not shown), for which the “hERG current change (%, negative = inhibition) at 10uM” value is listed as -2.9%.
Then `Cc1ccccc1C(=O)Nc1ccnn1C1CCN(CC2CC=CCC2)CC1` (stereo not shown), with -72.6%; and `COc1cc2[nH]c(=S)n(CCCN3CCOCC3)c(=O)c2cc1OC`, with 3.62%; and `O=C(NCC(=O)N(CC1CCCO1)C(C(=O)NC1CCCCC1)c1ccccc1)c1cccs1` (stereo not shown), with -7.17%.
Then `O=C(CSc1ccc(Cl)cc1)Nc1ccc(N2CCN(c3ccccc3)CC2)c(F)c1`, with 24.9%; and `CC(=O)OC1C(N2CCCCC2)c2c(ccc(/C=C/C(=O)N3CCCCC3)c2O)OC1(C)C` (stereo not shown), with 7.65%.
Then `Cc1ccc(C)c(NC(=O)Cn2c([N+](=O)[O-])cnc2C)c1`, with 23.5%; and `CCCn1c(=O)n(C)c(=O)c2c(SCC(=O)NCc3ccco3)nc(C3CC3)nc21`, with -7.62%; and `O=C(NCCN1CCCC1)C1CCN(S(=O)(=O)N2CCC3(CC2)OCCO3)CC1`, with 20.5%.
In the case of `CCOC(=O)NC(=O)CSc1nc2ccc(OCC)cc2[nH]1`, the “hERG current change (%, negative = inhibition) at 10uM” value is 4.03%.
Then `Cc1nn(-c2ccc(Cl)cc2)c(=O)c2c(C)noc12`, with 0.0355%; and `CCC(C)(C)NC(=O)C1CCC(CNS(=O)(=O)c2cccc3nsnc23)CC1` (stereo not shown), with -9.15%.
Then `COCC(=O)Nc1cccc(-c2ccc3nncn3n2)c1`, with 9.97%.
